In PubChem BioAssay AID1347073 (National Center for Advancing Translational Sciences (NCATS), 2019):
Hit rate of the full screen: of about 45,000 compounds, about 200 (0.44%) were called active. Roughly 7% stayed inconclusive and do not appear here. The call rests on the fitted dose curve; in most records, active means well fitted activation curve with a large enough effect; inconclusive means small, poorly fitted or top-dose-only effect; inactive means no such curve, though single readings can be large or run the other way. This is one part of the list.

Experiment: qHTS of TDP-43 Inhibitors: NCGC Sytravon Library Screen; further: 0% is about no effect; nearly all actives have a fitted effect of over 55% in size
Conditions: yeast TDP-43 toxicity rescue, BacTiter-Glo growth, 24 h; series mostly up to 46.1 µM; growth rescue (activation): at the top concentration
Method in brief: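 TDP-43-expressing yeast, pregrown in raffinose, seeded at OD600 0.02 in galactose medium with compound for 24 hr at 30 deg C. Growth read by BacTiter-Glo luminescence, so rescue of toxicity appears as activation.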

SMILES | growth rescue (activation)
COc1ccc(NC(=O)c2cc(C3CCCCN3S(=O)(=O)c3c(C)noc3C)on2)c(C)c1 (configuration not stated) | inactive: 6.29%
CN(Cc1cccs1)C(=O)Cc1c[nH]c2ccccc12 | inactive: 4.14%
Cc1cc(N/N=C/c2cccc([N+](=O)[O-])c2)nc(-n2nc(C)cc2C)n1 | inactive: 19.1%
CCOC(=O)C1(C)CCCN(C(=O)c2ccccc2OC(F)(F)F)C1 (configuration not stated) | inactive: 16.3%
O=C(Cc1ccc(Br)cc1)N1CCN(c2ccccn2)CC1 | inactive: 11.6%
O=C(/C=C/c1ccccc1Cl)OCC(=O)N1CCCC1 | inactive: -4.8%
CN(c1cccc(NC(=O)c2ccccc2N(C)S(=O)(=O)c2ccccc2)c1)S(C)(=O)=O | inactive: -0.414%
CCCCC(=O)c1c(O)c2ccccc2oc1=O | inactive: -89.3%
COC(=O)c1ccc(-c2ccc(/C=N/NC(=O)CC3(C)OCCCO3)o2)cc1 | inactive: 14.3%
COCc1c(C(=O)NC(C)c2ccc(S(N)(=O)=O)cc2)oc2ccccc12 (configuration not stated) | inactive: 20.1%
COc1ccc(CN2CCN(C(=O)C3CCC(CNS(=O)(=O)c4ccc(C)cc4)CC3)CC2)c(OC)c1OC (configuration not stated) | inactive: -4.03%
Cc1ccc(C)c(C(=O)COC(=O)CNS(=O)(=O)c2ccccc2)c1 | inactive: 16.4%
Cc1cc(N2CCCC2=O)ccc1S(=O)(=O)NC1CCCCC1 | inactive: 4.07%
Cc1ccc(NC(=O)c2ccc3c(c2)N(CC(=O)NC(C)C)C(=O)C(C)(C)O3)cc1 | inactive: 2.38%
CCOc1ccc(/C=C/C(O)=C2/C(=O)NC3(C)CC2c2ccccc2O3)cc1OC (configuration not stated) | inactive: 13.2%
COc1cc(/C=C/C(=O)c2ccc(NS(=O)(=O)c3ccc(C)cc3)cc2)cc(OC)c1O | inactive: 11.9%
Cc1cccc2[nH]c(CN(C)C(=O)CC3C(=O)NCCN3CC(C)(C)C)nc12 (configuration not stated) | inactive: -3.09%
O=C(CCC1CCCN(C(=O)CCN2CCCCC2=O)C1)NCc1ccccc1F (configuration not stated) | inactive: 5.52%
O=C(Nc1cc(S(=O)(=O)N2CCCCC2)ccc1N1CCOCC1)c1ccc(F)cc1 | inactive: 9.01%
O=C(OCC(=O)N1CCOCC1)c1ccccc1OCc1ccccc1Cl | inactive: 9.47%
C=CCn1c(=S)[nH]c2scc(-c3ccco3)c2c1=O | inactive: 10.4%
Cc1cc(C)n(C(=O)c2ccc([N+](=O)[O-])c(Cl)c2)n1 | inactive: 12.7%

SMILES | growth rescue (activation)
CCOc1ccc(NC(=O)CCS(=O)(=O)c2ccc(C)cc2)cc1 | inactive: 3.06%
COc1cccc(NC(=O)CN2C(=O)NC3(CCCCCC3)C2=O)c1 | inactive: -10.4%
CCN(CC)c1ccc(C(=O)OCC(=O)Nc2ccc3[nH]c(=O)[nH]c3c2)cc1 | inactive: 8.58%
NS(=O)(=O)c1ccc(NC(=O)CN2CCCC2)cc1 | inactive: 13.5%
CCOc1ccc(NC(=O)N(CCN2CCOCC2)Cc2ccc3c(c2)CCCN3CC)cc1 | inactive: 21.6%
CC1CN(C(=O)c2cccc(COc3ccccc3Cl)c2)CC(C)O1 (configuration not stated) | inactive: 9.37%
CC(C)C(NS(=O)(=O)c1ccc2c(c1)OCCCO2)C(=O)O (configuration not stated) | inactive: -4.55%
COc1ccccc1N(C)S(=O)(=O)c1ccc(C(=O)OCC(=O)N(C)c2ccccc2)cc1 | inactive: 10.9%
CC(c1ccco1)N(C(=O)c1ccccc1NS(=O)(=O)c1cccc([N+](=O)[O-])c1)c1ccccn1 (configuration not stated) | inactive: 0.436%
N#Cc1ccc(-c2ccc(OCC(O)CN3CCCCC3)cc2)cc1 (configuration not stated) | inactive: -10.6%
Cc1ccc(-c2cnc(C(O)c3cc(Cl)cc(Cl)c3)[nH]2)cc1 (configuration not stated) | inactive: 11.1%
COc1ccc(S(=O)(=O)NCCSCc2ccc(Cl)cc2)cc1NC(C)=O | inactive: 13.6%
Cc1ccc(CN2CCN(/N=C/c3cccs3)CC2)cc1 | inactive: 6.8%
O=c1[nH]c(=O)c2ccccc2o1 | inactive: -6.52%
CC(C)(CNCc1ccccc1)NS(=O)(=O)c1ccc(Cl)cc1 | inactive: 19.6%
NC(=O)c1ccc[n+](CC(=O)c2ccccc2)c1 | inactive: -6.67%
Cc1ccc(S(=O)(=O)N2CCCC(C(=O)NCc3ccccc3F)C2)cc1 (configuration not stated) | inactive: -2.12%
COc1ccc(S(=O)(=O)N2CCN(c3ccccc3)CC2)cc1C(=O)N1CCCC1 | inactive: 14.7%
CNCc1cc(Br)c(OCC(=O)Nc2ccccc2OC)c(OC)c1 | inactive: 10.1%
COc1cc(CNC(=O)c2cc(-c3ccc(OC)cc3C)n[nH]2)cc(OC)c1 | inactive: 8.45%
O=C1NC(=O)/C(=C\c2cn(CC(=O)N3CCOCC3)c3ccccc23)S1 | inactive: 7.37%
CCn1c(SCC(=O)N2CCOCC2)nnc1-c1ccco1 | inactive: 4.81%

SMILES | growth rescue (activation)
CN(C)S(=O)(=O)N1CCC(n2nccc2NC(=O)CCc2ccccc2)CC1 | inactive: 4.67%
CC(C)CNC(=O)CSc1nnc2ccccn12 | inactive: 2.57%
O=C(CN(C(=O)CCC(=O)Nc1nccs1)c1ccc(F)cc1)NCc1ccc2c(c1)OCO2 | inactive: 1.86%
Cc1nc(C)c(C(=O)N/N=C/c2ccco2)s1 | inactive: -2.11%
CCN(CC)c1ccc(S(=O)(=O)N2CCOCC2)cc1NS(C)(=O)=O | inactive: 10.6%
CN1CCSc2ccc(C(=O)Nc3ccc(Cl)cc3)cc21 | inactive: 0.767%
O=c1[nH]c2ccccc2c(=O)n1Cc1ccco1 | inactive: 7.43%
CC(CN1C(C)CCCC1C)OC(=O)c1cccc(Br)c1 (configuration not stated) | inactive: 4.98%
O=S(=O)(c1cccs1)N1CN(Cc2cccs2)c2nc3ccccc3nc21 | inactive: -0.805%
N#CC1=C(N)Oc2n[nH]c(-c3ccc(F)cc3)c2C1c1cccnc1 (configuration not stated) | inactive: 19.5%
CN(Cc1cn(-c2ccccc2)nc1-c1ccc(F)cc1)C(=O)CCC(=O)O | inactive: 8.55%
Cc1cc(=O)oc2cc(OCC(=O)OCC(=O)NCCc3ccccc3)ccc12 | inactive: 7.72%
CCOc1ccccc1NC(=O)CN1CCC(C(=O)c2ccc(F)cc2)CC1 | inactive: 12.7%
CCOc1ccccc1CN1CCN(C2CCSCC2)CC1CCO (configuration not stated) | inactive: 7.36%
O=C(Nc1ccccc1C(=O)O)c1cc(S(=O)(=O)N2CCCCCC2)ccc1Cl | inactive: 1.94%
O=C(Cc1nc2ccccc2[nH]1)c1ccc(Br)cc1 | inactive: 16.4%
C=CCn1cc([N+](=O)[O-])nc1C | inactive: -24.7%
COc1ccc(C2Nc3ccccc3C(=O)N2NC(C)=O)c(OC)c1 (configuration not stated) | inactive: -4.18%
CC1(C)NC(=O)N(CC(=O)OCC(=O)c2ccc(Br)s2)C1=O | inactive: 16.7%
Oc1ccc(Cn2ccnc2)c2cccnc12 | inactive: -9.8%
COc1cccc(C(=O)N(C)C(C)c2nc3ccccc3s2)c1 (configuration not stated) | inactive: -9.45%
Cc1cc(C(=O)Nc2c(C)cccc2C)n(-c2ccccc2)n1 | inactive: 2.11%

SMILES | growth rescue (activation)
COc1ccc(NC(=O)c2cc(C3CCCCN3S(=O)(=O)Cc3ccccc3)on2)c(C)c1 (configuration not stated) | inactive: 22.3%
CCN1C(=O)C(C(=O)NC(C)c2ccccc2)C2CC1(C)Oc1ccccc12 (configuration not stated) | inactive: 11.4%
N#Cc1c(-c2ccccc2)nc(-c2ccccc2)nc1N1CCOCC1 | inactive: 3.63%
CCCCNC(=O)CSc1nnc(NC(C)=O)s1 | inactive: 7.31%
CCN(CC1CCCO1)C(=O)CCc1nnc(Cc2ccc3c(c2)OCO3)o1 (configuration not stated) | inactive: -2.33%
CC(=O)c1cccc(NC(=S)NC2CC2)c1 | inactive: 10.1%
CCC(=O)c1ccc(OCC(=O)OCC(=O)N(CCC#N)c2ccc3c(c2)OCCO3)cc1 | inactive: 1.02%
O=C(Nc1ccc(Br)cc1)c1cccc(N2C(=O)C3CCCCC3C2=O)c1 (configuration not stated) | inactive: 4.88%
CCCNC(=O)c1cc(C2CCCN(C(=O)c3ccc4ccccc4c3)C2)on1 (configuration not stated) | inactive: 5.39%
CS(=O)(=O)N(CC(=O)NCC1CCCO1)c1cc(Cl)c(Cl)cc1Cl (configuration not stated) | inactive: 3.27%
COc1ccc(Br)cc1/C=C/c1ccc2cccc(O)c2n1 | inactive: 23.9%
CCOC(=O)c1c(C)[nH]c(C)c1C(=O)COC(=O)c1ccc(OC)c(OC)c1 | inactive: 2.14%
CN(C)c1ccc(C(C(=O)NCC2CCCO2)N(C(=O)c2snc(C(N)=O)c2N)c2ccc3c(c2)OCO3)cc1 (configuration not stated) | inactive: 12.7%
O=C(O)c1cccc(NS(=O)(=O)c2cc(S(=O)(=O)c3ccc(Cl)cc3)ccc2Cl)c1 | inactive: -10.8%
CCc1cccc2c(C(=O)COC(=O)c3cccc(S(=O)(=O)N(C)C4CCCCC4)c3)c[nH]c12 | inactive: 5.47%
N=c1ccn(Cc2c(Cl)cccc2Cl)cc1 | inactive: 5.51%
COC(=O)c1ccc(COC(=O)c2cccn2C)o1 | inactive: -1.17%
CCOC(=O)Cc1nnc(NC(=O)CCc2ccccc2)s1 | inactive: 14.1%
COc1ccc(OC)c(S(=O)(=O)N2CCCC(C(=O)NCc3ccncc3)C2)c1 (configuration not stated) | inactive: 5.76%
C/C(=N\NC(=O)Cc1cccn1C)c1ccco1 | inactive: 2.81%
CCOC(=O)c1sc(NC(=O)CNCc2ccccn2)c(C(=O)OCC)c1C | inactive: -10.1%
CCOC(=O)c1nnn(-c2nonc2N)c1CNc1ccc(C)c(Br)c1 | inactive: 38.2%

SMILES | growth rescue (activation)
COc1ccccc1N1CCN(C(=O)c2cc3c(=O)n4cccc(C)c4nc3s2)CC1 | inactive: -5.59%
COc1ccc(O)c(-c2cc(-c3ccc(F)cc3)n[nH]2)c1 | inactive: 20.2%
O=C(NN1C(=O)c2ccccc2NC1c1ccc([N+](=O)[O-])o1)c1ccccc1 (configuration not stated) | inactive: 29.2%
CN1/C(=C\C(=O)Nc2ccc(F)cc2)C(C)(C)c2ccccc21 | inactive: -2.19%
COC(=O)c1ccccc1S(=O)(=O)N1CCC(C(=O)Nc2ccc(N3CCOCC3)cc2)CC1 | inactive: 0.36%
CNc1nc(-c2ccc3c(c2)CCN3C(=O)c2ccccc2F)c(C)s1 | inactive: 9.11%
COc1cc(C(=O)Nc2ccc(S(=O)(=O)Nc3ncccn3)cc2)c([N+](=O)[O-])cc1OC | inactive: 2.68%
[O-]C(=C(C(=S)Nc1cccc2ccccc12)[n+]1ccccc1)c1ccc2c(c1)OCCO2 | inactive: -11.3%
COc1ccc(CCn2c(C)nc3c(c(=O)c4ccccc4n3C)c2=O)cc1 | inactive: -5.69%
CCC(=O)Nc1nc2ccc([N+](=O)[O-])cc2s1 | inactive: 28%
Cc1n(-c2ccccc2)c2ccc(Cl)cc2[n+]1CCO | inactive: 3.83%
COC(=O)c1ccc(S(N)(=O)=O)o1 | inactive: 0.968%
CCNC(=O)C1CCCN(C(=O)c2ccc(C)c(F)c2)CC1 (configuration not stated) | inactive: 8.44%
O=C(CSc1nnc(-c2ccc(Cl)cc2)n1-c1ccc(Cl)cc1)N/N=C/c1ccco1 | inactive: 8.66%
CCOC(=O)c1c(NC(=O)/C(C#N)=C/c2ccc(OC)cc2)sc2c1CCC2 | inactive: 6.02%
COCCn1c(=O)[nH]c2cc(C(=O)Nc3cc(OC)c(OC)c(OC)c3)ccc2c1=O | inactive: 2.74%
CCOC(=O)CSc1nnc(-c2cccnc2)n1C | inactive: 1.95%
Cc1nnc(NCCc2ccccc2)c2ccccc12 | inactive: 14.2%
CN1C(=O)c2ccc(NC(=O)c3cccc4ccccc34)cc2C1=O | inactive: 0.141%
